The text below walks through data of ChEMBL document CHEMBL1201862, “PubChem BioAssay data set” (2004).

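Interpolation was linear, between the two tested concentrations surrounding the appropriate level; five concentrations were tested over 48 hours in 96-well plates. At the GI50, growth is halved.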 The source made the active and inactive calls. Rule as the data show it: active = GI50 up to about 1.1 µM and inactive = higher. Bounds are passed on as bounds.

For the test, the system named is NCI-H322M. Nature of the test: inhibition of tumour cell growth, NCI panel, 48 h.
For the molecule `CCOC(=O)NC`, the GI50 is inactive: > 100 µM.
For the molecule `CCCNC(=S)N/N=C1\C(=O)Nc2ccccc21`, the GI50 was inactive: > 100 µM.
`OCC1OC(NC(=S)NCSCCC(F)(F)C(F)(F)C(F)(F)C(F)(F)C(F)(F)C(F)(F)F)C(O)C(O)C1O` (stereo not drawn): the GI50 is inactive: > 100 µM.
The result for `CC(C)/C(Cl)=N/OC(=O)Nc1ccc(OC(F)(F)F)cc1` reads inactive: 16.7 µM; that for `CC1(c2ccc(Cl)s2)CC(c2ccc(Cl)s2)=C(C#N)C(=C(C#N)C#N)N1` (stereo not drawn), inactive: 15.9 µM.
As to `c1ccc(C[N+]23C(CC[C@H]2c2ccccc2)CC[C@H]3c2ccccc2)cc1` (stereo partly drawn), the GI50 is inactive: 75.5 µM.
With `NNC(=S)N/N=C(\c1nc2ccc(Cl)cc2nc1O)C(O)c1ccc(Cl)cc1Cl` (stereo not drawn), the GI50 is inactive: > 100 µM.
The same measure for `O=c1ccc2c(Cl)cccc2o1`: inactive: > 100 µM; for `O=C1CCC[C@H]2O[C@@H](COC(=O)c3ccccc3)C[C@H]2O1`: inactive: > 100 µM; for `CC1CCOc2ccc(cc2)/C=N\c2ccc(cc2)-c2ccc(cc2)/N=C\c2ccc(cc2)OCC1`: inactive: > 100 µM.
For `C[N+](C)(C)C1(C(=O)[O-])CC1`, the GI50 was inactive: > 100 µM.
The result for `Cc1cc(-c2nc3cc(F)ccc3s2)ccc1NC(=O)C(C)N` (stereo not drawn) reads inactive: 2.86 µM; that for `COc1ccc(S(=O)(=O)N(C)CC(=O)O)cc1`, inactive: > 100 µM.
The same measure for `C=C(CCC/C(C)=C/C=C/[C@]1(C)CCCc2ccoc21)CC(=O)O`: inactive: > 100 µM; for `COc1cccc(Nc2nc(-c3cccs3)nc3cc(OC)c(OC)cc23)c1`: inactive: 37.7 µM.
The same measure for `O=[N+]([O-])C(/C=C(\Cl)n1nnc2ccccc21)=C(/Cl)n1nnc2ccccc21`: inactive: > 100 µM.
Take `Cn1c(=O)c2c(nc3n(Cc4ccccc4)c(=O)c(NCCBr)cn23)n(C)c1=O`: the GI50 is inactive: 37.5 µM.
The result for `C/C(=N\NC(N)=O)c1sc(-c2nc(C)c(/C(C)=N/NC(N)=O)s2)nc1C` reads inactive: > 100 µM; that for `O=C(CC(=O)c1ccccc1)C(=O)NC12CC3CC(CC(C3)C1)C2`, inactive: > 100 µM; that for `CCSc1nc(N)c2c(-c3ccc(OC)c(OC)c3)c3c(nc2n1)CCCC3`, inactive: > 100 µM.
Consider `CS(=O)(=O)NNS(=O)(=O)c1ccc(F)cc1`, for which the GI50 was inactive: > 100 µM.
The result for `CC(=O)OCc1cc(=O)n2c([nH]c3ccccc32)c1C#N` reads inactive: > 100 µM; that for `Cc1cc2nnn(C3CCCO3)c2cc1C` (stereo not drawn), inactive: > 100 µM.
The same measure for `O=C1c2ccccc2C(=O)c2nc3ccc(Cl)cc3cc21`: inactive: > 100 µM; for `NC(=O)c1nnc2cc(F)ccc2c1N`: inactive: > 100 µM; for `COc1ccc(/C=C2\CCS(=O)(=O)c3ccccc3C2=O)cc1OC`: inactive: 80.2 µM.
The result for `O=C1NC(N2CCCCC2)=N/C1=C\c1ccc(Cl)cc1` reads inactive: 58.6 µM; that for `COC(=O)C(Br)C1CCc2ccccc21` (stereo not drawn), inactive: > 100 µM.
As for `Cc1ccc(Nc2nc(C)c(C(=O)CC(=O)C(=O)Nc3ccc(Cl)cc3)s2)cc1`, the GI50 was inactive: > 100 µM.
`COc1ccc(/C=C2\CCC(CCN3CCOCC3)C2=O)cc1` (stereo not drawn): the GI50 was inactive: > 100 µM.
The result for `N#CCCn1c(S)nnc1CCC(=O)Nc1ccc(Cl)cc1Cl` reads inactive: > 100 µM; that for `COc1cc2c(c(O)c1OC)C(O)C1CCC(=O)N1C2c1ccc2c(c1)OCO2` (stereo not drawn), inactive: > 100 µM.
The same measure for `Cc1ccc(S(=O)(=O)NC(=O)NC23CC4CC(CC(F)(C4)C2)C3)cc1`: inactive: > 100 µM; for `CC1OC(OC2C(O[C@H]3CC[C@@]4(C)C(=CC[C@H]5[C@@H]6C[C@@H]7O[C@]8(CC[C@H](C)CN8)[C@@H](C)[C@@H]7[C@@]6(C)CC[C@@H]54)C3)OC(CO)C(O)C2OC2OC(CO)C(O)C(O)C2O)C(O)C(O)C1O` (stereo partly drawn): inactive: 19.5 µM; for `Cc1cc(S(=O)(=O)NC2=Nc3cccc(F)c3CN2)c(S)cc1Cl`: inactive: 53.3 µM.
The same measure for `CCOC(=O)/C=C1\Nc2ccccc2-n2nnnc21`: inactive: > 100 µM.
With `CCOP(=O)(OCC)C1CC(n2cc(C)c(=O)[nH]c2=O)OC1CO` (stereo not drawn), the GI50 was inactive: > 100 µM.
The same measure for `Cc1csc2c(=O)n(COCc3ccccc3)c(=O)[nH]c12`: inactive: > 100 µM; for `CCOC(=O)[C@@H]1CCN2CN(c3ccc(OC)cc3)N=C(c3ccccc3)[C@@]12c1ccccc1`: inactive: 37.2 µM.
In the case of `O=C1c2ccccc2C(=O)N1CCn1ccc(NC(c2ccccc2)(c2ccccc2)c2ccccc2)nc1=O`, the GI50 is inactive: 25.6 µM.
The result for `CC(C)=Cc1cc(CCC/C(C)=C/Cc2c(O)cc(C)c(C(=O)O)c2O)co1` reads inactive: > 100 µM; that for `O=C(NC1C=Nc2ccccc2NC1=O)c1ccccc1Cl` (stereo not drawn), inactive: > 100 µM; that for `C=CCON(C(=O)OC(C)(C)C)C(C)(C)C`, inactive: > 100 µM.
The result for `Cc1cc(NS(=O)(=O)c2ccc(Nc3c4ccccc4nc4c(C(=O)Nc5ccc(S(=O)(=O)N=C(N)N)cc5)ccc(Cl)c34)cc2)no1` reads inactive: 25 µM; that for `c1ccc2c(c1)[C@@H]1O[C@@H]1[C@@]13O[C@@]21[C@H]1O[C@H]1c1ccccc13`, inactive: 18.5 µM.
`O=C(C#Cc1ccccc1)N1c2ccccc2CC1c1c[nH]c2ccccc12` (stereo not drawn): the GI50 is inactive: 19.7 µM.
The result for `CC1CCCN(CC(O)CN2CCCc3ccccc32)C1` (stereo not drawn) reads inactive: > 100 µM; that for `O=C(O)CCC(=O)c1ccc2c(c1)C(C(=O)O)CC2` (stereo not drawn), inactive: > 100 µM; that for `CCOC(=O)c1cccc(NC(=O)CI)c1`, inactive: 3.33 µM.
On to `CC1=CC(=O)c2c(C=O)c(O)c(O)c(C(C)C)c2C1=O`, for which the GI50 was inactive: 60 µM.
The result for `COc1ccc(/C=C2\C[C@H]3[C@@H]4CC=C5C[C@@H](OC(C)=O)CC[C@]5(C)[C@H]4CC[C@]3(C)C2=O)cc1OC` reads inactive: 74.8 µM.
Turning to `N#Cc1ccc(-c2nc3c(N)nc(-c4ccccc4)nc3o2)cc1`, the GI50 was inactive: 51.4 µM.
The same measure for `CCOc1ccc(/C=C2\N=C(c3ccc([N+](=O)[O-])cc3)OC2=O)cc1`: inactive: > 100 µM; for `Oc1ccccc1/C=N/c1nc2cc3sc(/N=C/c4ccccc4O)nc3cc2s1`: inactive: > 83.9 µM; for `CCC12C=CCN3CC[C@]4(C(=C(C(=O)OC)[C@@H]1Nc1ccn(C5OC(COC(C)=O)C(OC(C)=O)C5OC(C)=O)c(=O)n1)Nc1ccccc14)C32` (stereo partly drawn): inactive: 5.32 µM.
The same measure for `CCCCCC(/C=C/[C@@H]1[C@H]2CC(=O)O[C@H]2C[C@H]1N1CCOCC1)OC1CCCO1` (stereo partly drawn): inactive: > 100 µM; for `COc1ccccc1CCc1cc(OC)c(OC)c(OC)c1`: inactive: > 100 µM.
Turning to `COC(=O)CCC(C)[C@H]1CCC2C3C(C[C@H](OC(C)=O)[C@@]21C)[C@@]1(C)CCC2(C[C@H]1C[C@H]3OC(C)=O)OOC1(CCCC1)OO2` (stereo partly drawn), the GI50 is inactive: > 100 µM.
